Results published in the supplement of paper PMC10126150.
Values marked as one replicate rest on one cluster of the flow cell; about a third of the high ones do not repeat.

Tested on: ATP
Test: switch fluorescence ratio, 500 uM ATP over buffer (Cy3 cluster intensity, sum of 5 cycles each) (fold (ratio)); higher = stronger signal-on switching upon ATP binding; sequences stand for … in TCGTCGGCAGCGTCAGATGTGTATAAGAGACAGTTTTTTTTTTTTTTTTTTTTTTTTT…TC
Conditions: aptamer strand: ATP DNA aptamer (quencher-CACCTGGGGGAGTATTGCGGAGGAAGG + anchor), 100 nM annealed; ATP concentration: 500 uM; one replicate
Procedure, shortened: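 Values give the fluorescence ratio for each switch-domain sequence, averaged from per-cluster ratios of summed target-cycle to summed buffer-cycle Cy3 intensity. The Cy3-labelled switching-strand clusters sat on a modified Illumina MiSeq flow-cell, were annealed to 100 nM quencher-labelled ATP aptamer, and were imaged in selection buffer, then after 15 min with 500 uM ATP at 22 °C. Five cycles ran with NaOH stripping and re-annealing between them, and clusters outside 100-1000 RFU were excluded.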
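Also: ATP exposure 15 min at 22 °C before imaging.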

Sequence	switch fluorescence ratio
ATCAACTGGA	1.13
TCATTCGAC	1.02
GGGCGGTAAA	0.96
TAATAAGTCC	0.987
AACCGCTTCA	1.1
AACATGGCCG	1.09
CCCAGATAAG	1.08
TGAGATTACT	0.953
GTTTCATCAT	1.01
ACCCGGGGTA	1.02
TACGAATTAA	1.02
TGGGAGGGC	0.99
GGTGAGGACA	1.02
TTTCCTACGG	1.24
CCCAGAGGTC	0.99
ATTGGCGGGG	1.06
CCAGAAGAGT	0.974
ATTTCTGAGG	1.17
ATGTAATAAG	1
GGCGCGATGC	1.39
CATCACTTCT	1.04
GTAACCTAGA	1.05
ACGGTTGGAT	1.04
TGCGATAGTT	1.01
ATACAGTCAC	1.21
CGTTATGAGT	1.01

Sequence	switch fluorescence ratio
GGTCCCACGA	0.967
TCCTGGGTGC	2.43
TCAGAAGCCT	1.21
ATGTAATTAC	1.03
AAAGTTTGAA	0.972
ATCGCATGCG	0.974
TATTGAATA	0.935
TGAATATCGG	0.965
TTGCAGTAGA	0.965
AGGTTGATTT	1.04
CGGGTAGCTC	1.02
TTGGGAACG	1.02
TTGTAGAGAC	0.99
CTCAACCTCG	0.986
TTGGGTCAGC	0.986
CTTACAGTCT	1.03
GGCGAAGGCA	0.979
ATGTGCGTGG	0.976
CCTTTTCCTT	1.01
CAGGCATGGG	1.01
GACTCGCGAT	1.63
CGTGGTTGT	0.969
CCCGATAATT	1.07
TAACGACGA	1.09
AGAACGGGT	1
TATAGACTA	1.02

Sequence	switch fluorescence ratio
ACCACTAAGG	1.06
GCTTGGATTA	0.991
TTTAAGAAA	0.959
GAATGTAACG	0.972
GATCCCCTGA	1.33
GAGACGGCGT	0.981
TCGTAAAGTG	0.964
TTTTCAGC	0.991
ATTTTGCGCA	1
AACATGAGAG	1.07
GACTACGGAA	4.86
GCCGGAATTC	1.1
ACACTAGCGT	1.06
GCTCCTTTAT	0.999
TAGTTGTTCA	1.02
CGGTATCCAT	0.961
AACTATCCGG	1.02
CAAGACCCGC	1.07
TTTGGGTACG	1.02
AGTCACTTCG	0.995
ACATAAGCCT	1.27
GGCACAATCA	0.972
TAATCTTCTG	1.01
GGATGCGACG	1.05
CTGATAGCCA	1.09
CTTAGATAGG	0.979

Sequence	switch fluorescence ratio
CTATCTAATA	1.02
ATTCGAATTA	0.964
GTAAAGAGCG	1.02
CTGAATATGG	0.984
GGTGGTTCCC	1.01
GTTTTGTC	1.04
GGTATGAAGA	1.02
GTTACAGGA	0.945
CTTAGCCC	0.993
TATGTGCGTG	0.979
GGGAATCACC	0.992
CTTCATGACC	1.05
GGTCCAGAGC	1.04
CGTAGTAGG	0.993
TCCGGGCTTT	1.05
CGGGCCCACT	1.01
ATTAGTATTA	1.01
TCCATTATAA	0.999
ACCCGAATCA	0.996
CACTGGGTCG	0.981
TGATCGCGGT	1
TTCTCGTCGA	1.01
GTAGTTGGTT	0.99
GCGAGACGAA	1.04
GGTACGCGGG	0.975
GTCGTAGAGC	0.974

Sequence	switch fluorescence ratio
AATAAGCACC	1.27
CGAGAAAAGT	0.996
ATTAAAATTA	0.993
TTAGGCTGGT	1.03
TTCCCTACAT	1.02
ATGCATAAGC	1.06
TGTTTAATC	1.03
CGACTTATTA	1
CCGGGCTCGG	0.97
ACAAGACAGG	0.999
GTTAAATATC	0.996
GTGGGGGCTA	0.955
GTGTGGTAAT	1.01
TAGACGGTTA	1.04
CTCACATTTG	1
CCACGGGGCT	1.07
AGGTATACGA	1.02
TTCAGCGGTT	1.06
AGCATTTCTC	1.64
TCACAGTCGC	1.03
TACTTAGGCT	1.03
TAAGCTCGTA	0.963
TGGATGCGCC	0.975
TTGAGCTTAA	1.01
CAAAAAGTAA	1.02
CCGGGCTAAT	2.48

Sequence	switch fluorescence ratio
CGATTATGG	0.983
ACTTTACTTT	1.28
GATGAAAATG	1.01
CTCTTGACTT	1.01
CGGGGAAAAT	0.997
TCTTTTTCT	1.13
CACAATTTGT	1
CAGGATTCTC	0.986
TTATAATTGG	1.02
CGGTGGGCTT	1.01
TGAAGGGAGC	1.01
TAGAGCCCCG	1.01
TGGCAGACCA	0.992
TTTATTCTGA	0.967
TGACGCCTT	1.78
CCAGTCGATT	0.942
CAAAGTTCCG	0.994
GCATGAGCCT	0.988
CAATTCGTGG	0.975
TTCCACGTCT	1.36
TACCAGTAT	0.991
AACAAAAATG	0.993
CTCGAGCGGG	1.02
AGTGTACACC	0.988
GGAATTAAGG	1.07
CCAGGGTTAG	1.01

Sequence	switch fluorescence ratio
GCCATCTCTG	0.983
GCTTCAAAGT	0.963
AAACATAAG	1.02
TTTACTCAGG	1.1
GCAGGAACG	0.962
CGTTCTTCTT	0.989
TAGATTGACA	1.02
GTGTTAAGCA	0.988
ATGGCGCCCC	1.17
CGTTGCCGAA	1.03
CCCTGCCAAC	4.3
CGACTGGTTG	0.991
GTATTCCCCG	1.09
GTCACCTCTG	1.01
AAAGTCAGGA	0.959
GTTTTAGAAT	0.985
GGCATCTACG	1.08
GGCGGCGGAT	1.02
AGTATGTATT	0.986
TGCCCGAGG	1.05
TCGAAAGGGA	0.99
AAAGTCATCG	0.96
CTGAATTT	1.03
AATTCGCAGA	1.07
GTCGGTGGC	1.11
TCGTCGAATG	1.02

Sequence	switch fluorescence ratio
AAGATGCGAT	1.02
CCAGTCGCTA	1.34
GTTCAATATC	1.14
TATATTT	1.04
CACAAGTAAT	1.05
GTCGTTTAGG	1.01
ACCGTTTCAA	1.03
TAGAAGATGG	0.984
TTATAAAAAT	1.02
TTTGAAATAA	1.06
GATTCTCCCA	0.986
ACCCCGATCA	1.12
GCACAAAGAG	1.05
TATCGGGCAT	1.36
CGCTAGAAGG	1.01
GGCCGAGGCT	0.961
TCAGCGTACT	1.25
ACTGTCTGTA	1.02
CTAGTCCGCT	1.25
